Results as given in article PMC3748711.
These are yes or no findings as the source states them, for the method shown. For some assays here: Binding seen in cells or lysates may run through a third protein. Some results given as binding are weak or reduced against the parent protein; the word gives no strength. For some assays here: Tags and fused reporters may be left off the sequences shown. Blank lines part the entries; values can stand above or below the substance they belong to.

Sequences of proteins named here, by UniProt entry; tags and fusion partners are left off. A change or cut given only in a name is not applied to a line headed by its entry. A line that says so, or that is headed by a name, gives the form on record, which may keep a tag or linker. Residues count along the entry.
UniProt Q91ZX7, residues 20-4545: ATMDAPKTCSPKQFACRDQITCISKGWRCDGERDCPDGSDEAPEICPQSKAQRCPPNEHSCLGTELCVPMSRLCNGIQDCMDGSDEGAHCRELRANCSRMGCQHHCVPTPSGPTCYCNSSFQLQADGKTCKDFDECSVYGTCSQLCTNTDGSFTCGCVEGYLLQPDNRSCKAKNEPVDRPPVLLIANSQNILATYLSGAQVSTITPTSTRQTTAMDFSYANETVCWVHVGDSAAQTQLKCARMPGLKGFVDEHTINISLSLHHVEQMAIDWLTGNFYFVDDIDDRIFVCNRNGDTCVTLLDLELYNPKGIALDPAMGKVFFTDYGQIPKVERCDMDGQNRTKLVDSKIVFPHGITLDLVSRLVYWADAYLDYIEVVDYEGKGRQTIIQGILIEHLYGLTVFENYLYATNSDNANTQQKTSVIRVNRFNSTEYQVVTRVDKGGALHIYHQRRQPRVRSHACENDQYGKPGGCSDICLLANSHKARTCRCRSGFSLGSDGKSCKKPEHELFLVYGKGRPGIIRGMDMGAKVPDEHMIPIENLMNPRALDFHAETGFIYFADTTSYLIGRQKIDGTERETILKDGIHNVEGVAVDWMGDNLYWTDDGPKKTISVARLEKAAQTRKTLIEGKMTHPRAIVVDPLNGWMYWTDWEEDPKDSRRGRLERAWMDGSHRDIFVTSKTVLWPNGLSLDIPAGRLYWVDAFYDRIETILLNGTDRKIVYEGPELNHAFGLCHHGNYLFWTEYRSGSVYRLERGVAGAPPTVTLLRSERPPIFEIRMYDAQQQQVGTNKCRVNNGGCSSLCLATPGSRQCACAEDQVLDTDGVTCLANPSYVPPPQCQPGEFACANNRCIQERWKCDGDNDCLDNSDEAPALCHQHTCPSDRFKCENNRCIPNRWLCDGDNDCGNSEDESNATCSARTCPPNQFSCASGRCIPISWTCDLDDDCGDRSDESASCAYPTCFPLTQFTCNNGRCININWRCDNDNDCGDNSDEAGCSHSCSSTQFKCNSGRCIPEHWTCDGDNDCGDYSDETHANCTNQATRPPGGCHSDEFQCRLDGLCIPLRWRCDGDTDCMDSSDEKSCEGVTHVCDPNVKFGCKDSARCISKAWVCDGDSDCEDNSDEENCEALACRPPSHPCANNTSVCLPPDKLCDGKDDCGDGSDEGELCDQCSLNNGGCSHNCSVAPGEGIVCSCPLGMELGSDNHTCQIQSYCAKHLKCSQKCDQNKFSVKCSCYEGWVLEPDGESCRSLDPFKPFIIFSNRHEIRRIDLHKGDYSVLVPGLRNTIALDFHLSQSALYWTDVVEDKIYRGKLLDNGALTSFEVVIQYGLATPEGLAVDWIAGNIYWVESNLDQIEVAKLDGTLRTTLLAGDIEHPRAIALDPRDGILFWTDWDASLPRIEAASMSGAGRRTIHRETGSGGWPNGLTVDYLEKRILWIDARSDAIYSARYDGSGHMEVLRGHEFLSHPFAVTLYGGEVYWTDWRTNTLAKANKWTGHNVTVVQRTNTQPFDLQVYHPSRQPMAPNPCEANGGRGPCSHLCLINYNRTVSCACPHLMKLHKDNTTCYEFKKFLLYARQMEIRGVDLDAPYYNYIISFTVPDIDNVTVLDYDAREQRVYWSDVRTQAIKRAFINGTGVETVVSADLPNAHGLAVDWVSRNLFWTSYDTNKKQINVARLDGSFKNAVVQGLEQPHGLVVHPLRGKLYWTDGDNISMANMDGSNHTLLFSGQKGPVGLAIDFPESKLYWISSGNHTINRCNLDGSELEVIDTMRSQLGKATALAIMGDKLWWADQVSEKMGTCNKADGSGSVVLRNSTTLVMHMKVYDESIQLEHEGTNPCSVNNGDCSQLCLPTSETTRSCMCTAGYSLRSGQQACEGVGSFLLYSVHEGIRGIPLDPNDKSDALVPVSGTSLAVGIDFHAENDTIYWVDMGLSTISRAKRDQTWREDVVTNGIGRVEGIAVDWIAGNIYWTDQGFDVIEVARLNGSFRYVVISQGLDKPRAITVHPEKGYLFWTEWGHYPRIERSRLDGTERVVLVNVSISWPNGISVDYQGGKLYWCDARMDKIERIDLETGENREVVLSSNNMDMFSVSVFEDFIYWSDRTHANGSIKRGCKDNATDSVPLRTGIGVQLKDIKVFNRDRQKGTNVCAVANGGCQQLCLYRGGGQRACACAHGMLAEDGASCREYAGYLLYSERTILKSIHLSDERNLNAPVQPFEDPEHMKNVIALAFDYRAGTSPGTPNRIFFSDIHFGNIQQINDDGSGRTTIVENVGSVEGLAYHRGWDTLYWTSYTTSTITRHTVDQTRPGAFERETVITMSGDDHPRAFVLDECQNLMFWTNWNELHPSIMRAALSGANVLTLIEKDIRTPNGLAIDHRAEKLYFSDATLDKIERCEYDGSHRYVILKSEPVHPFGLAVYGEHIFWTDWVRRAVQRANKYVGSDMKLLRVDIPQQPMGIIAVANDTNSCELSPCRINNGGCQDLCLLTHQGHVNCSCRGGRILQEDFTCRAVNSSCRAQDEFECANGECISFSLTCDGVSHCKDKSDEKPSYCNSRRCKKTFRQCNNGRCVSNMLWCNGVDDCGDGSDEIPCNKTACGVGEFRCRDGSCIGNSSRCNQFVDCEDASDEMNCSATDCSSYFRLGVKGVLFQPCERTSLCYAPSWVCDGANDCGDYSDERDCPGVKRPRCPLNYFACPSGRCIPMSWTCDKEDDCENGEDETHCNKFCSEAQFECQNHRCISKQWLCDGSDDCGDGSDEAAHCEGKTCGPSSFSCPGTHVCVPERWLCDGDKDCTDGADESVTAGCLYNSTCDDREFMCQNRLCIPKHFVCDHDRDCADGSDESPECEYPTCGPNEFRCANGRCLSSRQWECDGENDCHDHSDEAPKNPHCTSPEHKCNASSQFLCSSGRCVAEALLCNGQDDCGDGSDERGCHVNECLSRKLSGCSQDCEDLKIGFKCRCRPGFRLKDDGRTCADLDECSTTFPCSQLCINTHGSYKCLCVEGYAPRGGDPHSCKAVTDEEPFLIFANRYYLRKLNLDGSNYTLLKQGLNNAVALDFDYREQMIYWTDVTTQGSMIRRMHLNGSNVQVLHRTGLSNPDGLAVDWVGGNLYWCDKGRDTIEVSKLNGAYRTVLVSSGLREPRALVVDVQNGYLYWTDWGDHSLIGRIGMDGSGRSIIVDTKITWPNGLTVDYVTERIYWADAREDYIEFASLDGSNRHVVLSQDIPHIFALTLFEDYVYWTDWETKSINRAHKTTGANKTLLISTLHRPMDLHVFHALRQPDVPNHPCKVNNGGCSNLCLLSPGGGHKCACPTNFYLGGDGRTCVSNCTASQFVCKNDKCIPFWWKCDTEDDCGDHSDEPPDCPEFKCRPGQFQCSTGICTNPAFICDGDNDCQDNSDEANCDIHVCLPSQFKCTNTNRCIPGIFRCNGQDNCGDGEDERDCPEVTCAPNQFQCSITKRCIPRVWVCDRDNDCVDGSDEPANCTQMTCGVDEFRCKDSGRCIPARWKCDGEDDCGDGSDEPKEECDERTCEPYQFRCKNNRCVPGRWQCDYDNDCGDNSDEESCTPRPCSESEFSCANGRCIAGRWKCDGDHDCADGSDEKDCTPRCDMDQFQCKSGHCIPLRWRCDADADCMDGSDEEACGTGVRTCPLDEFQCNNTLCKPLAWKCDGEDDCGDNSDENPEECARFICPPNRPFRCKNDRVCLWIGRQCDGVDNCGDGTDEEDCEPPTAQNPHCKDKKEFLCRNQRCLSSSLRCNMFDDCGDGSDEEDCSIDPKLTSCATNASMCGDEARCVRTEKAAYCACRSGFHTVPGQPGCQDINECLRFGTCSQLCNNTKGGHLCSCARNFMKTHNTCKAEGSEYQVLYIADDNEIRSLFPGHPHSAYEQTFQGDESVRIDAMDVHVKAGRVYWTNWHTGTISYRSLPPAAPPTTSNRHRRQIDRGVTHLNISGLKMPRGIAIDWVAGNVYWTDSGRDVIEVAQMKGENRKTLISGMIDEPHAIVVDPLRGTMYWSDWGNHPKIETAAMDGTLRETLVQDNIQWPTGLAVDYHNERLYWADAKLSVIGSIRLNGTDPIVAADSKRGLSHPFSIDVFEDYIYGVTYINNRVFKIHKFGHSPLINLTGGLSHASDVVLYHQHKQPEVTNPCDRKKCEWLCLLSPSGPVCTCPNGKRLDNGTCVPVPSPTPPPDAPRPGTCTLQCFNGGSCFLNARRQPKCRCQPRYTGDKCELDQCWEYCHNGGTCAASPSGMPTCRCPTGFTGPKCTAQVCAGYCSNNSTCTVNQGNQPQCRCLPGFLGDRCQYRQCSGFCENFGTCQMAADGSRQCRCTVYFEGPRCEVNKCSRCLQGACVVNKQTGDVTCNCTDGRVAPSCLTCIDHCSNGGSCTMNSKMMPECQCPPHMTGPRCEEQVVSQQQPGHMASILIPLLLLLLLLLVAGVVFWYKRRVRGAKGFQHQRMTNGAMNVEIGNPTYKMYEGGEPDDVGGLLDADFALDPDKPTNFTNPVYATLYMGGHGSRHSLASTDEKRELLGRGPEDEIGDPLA
UniProt Q8VI56: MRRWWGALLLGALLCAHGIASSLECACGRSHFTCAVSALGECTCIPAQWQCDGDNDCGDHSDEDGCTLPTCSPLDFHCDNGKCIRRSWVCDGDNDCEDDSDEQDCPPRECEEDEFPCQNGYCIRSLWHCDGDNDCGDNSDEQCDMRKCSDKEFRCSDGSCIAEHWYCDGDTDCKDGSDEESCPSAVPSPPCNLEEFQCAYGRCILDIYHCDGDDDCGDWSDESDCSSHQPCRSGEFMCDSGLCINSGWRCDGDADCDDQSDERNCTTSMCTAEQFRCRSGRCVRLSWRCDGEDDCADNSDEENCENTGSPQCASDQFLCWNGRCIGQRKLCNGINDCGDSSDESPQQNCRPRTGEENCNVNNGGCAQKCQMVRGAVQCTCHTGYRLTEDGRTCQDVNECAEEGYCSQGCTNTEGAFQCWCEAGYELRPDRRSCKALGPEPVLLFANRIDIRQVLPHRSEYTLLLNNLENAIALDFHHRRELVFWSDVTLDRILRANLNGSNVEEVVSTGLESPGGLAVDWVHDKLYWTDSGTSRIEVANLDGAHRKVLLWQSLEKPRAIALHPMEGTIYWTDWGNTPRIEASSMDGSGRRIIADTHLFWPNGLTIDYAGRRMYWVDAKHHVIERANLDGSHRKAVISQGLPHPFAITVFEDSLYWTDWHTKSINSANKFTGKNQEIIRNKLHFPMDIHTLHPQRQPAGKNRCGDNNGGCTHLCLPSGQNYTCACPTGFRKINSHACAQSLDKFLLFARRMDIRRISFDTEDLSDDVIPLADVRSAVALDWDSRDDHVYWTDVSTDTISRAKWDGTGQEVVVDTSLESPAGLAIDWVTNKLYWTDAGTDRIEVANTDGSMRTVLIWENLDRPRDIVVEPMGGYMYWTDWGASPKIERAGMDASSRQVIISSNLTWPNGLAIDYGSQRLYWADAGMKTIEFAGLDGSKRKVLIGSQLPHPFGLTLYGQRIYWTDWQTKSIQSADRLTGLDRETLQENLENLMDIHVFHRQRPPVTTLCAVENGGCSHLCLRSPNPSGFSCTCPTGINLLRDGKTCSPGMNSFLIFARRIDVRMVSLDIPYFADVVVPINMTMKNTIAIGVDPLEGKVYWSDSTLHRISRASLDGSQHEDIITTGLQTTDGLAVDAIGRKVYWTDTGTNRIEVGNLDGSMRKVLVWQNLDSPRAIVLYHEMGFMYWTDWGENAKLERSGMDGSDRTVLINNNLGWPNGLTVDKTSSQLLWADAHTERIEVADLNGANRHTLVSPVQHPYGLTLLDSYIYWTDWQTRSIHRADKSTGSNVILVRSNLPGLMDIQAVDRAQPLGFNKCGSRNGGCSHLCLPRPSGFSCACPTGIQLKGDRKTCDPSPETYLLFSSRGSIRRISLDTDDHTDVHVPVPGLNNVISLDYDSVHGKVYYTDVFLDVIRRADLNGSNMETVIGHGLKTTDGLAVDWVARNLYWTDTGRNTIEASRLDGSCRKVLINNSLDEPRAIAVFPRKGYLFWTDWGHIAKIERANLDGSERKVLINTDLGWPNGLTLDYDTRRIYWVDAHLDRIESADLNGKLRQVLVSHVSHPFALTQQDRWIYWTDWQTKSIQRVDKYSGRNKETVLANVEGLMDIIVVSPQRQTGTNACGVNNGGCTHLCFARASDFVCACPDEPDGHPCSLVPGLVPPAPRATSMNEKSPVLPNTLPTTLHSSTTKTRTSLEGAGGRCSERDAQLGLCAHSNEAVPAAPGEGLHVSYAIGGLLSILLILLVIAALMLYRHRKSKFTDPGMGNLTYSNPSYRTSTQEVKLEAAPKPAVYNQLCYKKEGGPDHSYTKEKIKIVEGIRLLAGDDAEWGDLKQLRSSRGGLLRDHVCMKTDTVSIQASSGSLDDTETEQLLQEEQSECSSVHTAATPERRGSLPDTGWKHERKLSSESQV
full length LRP4 expressed on HEK293T cells: residues 21-1905 of Q8VI56
LRP4-Fc (extracellular domain of mouse LRP4, residues 1-1650, fused to the constant region of human IgG): residues 21-1650 of Q8VI56

How the values were obtained:
[1] = target: LRP1 (endogenous, mouse embryonic muscle) (mouse (endogenous in embryonic muscle)) (UniProt Q91ZX7); assay: co-IP; E14.5 mouse hind limb muscle extract (PBS, 5 mM EDTA, 5 mM EGTA, 1% digitonin); anti-LRP4, anti-ApoER2 or anti-LRP1 overnight at 4°C, Protein A Dynabeads; immunoblot
[2] = target: Apoer2 (endogenous, mouse embryonic muscle) (mouse (endogenous in embryonic muscle)) (UniProt Q924X6); assay: as above
[3] = target: LRP4 (endogenous, mouse embryonic muscle) (mouse (endogenous in embryonic muscle)) (UniProt Q8VI56); assay: as above
[4] = target: APP-Fc (APP695 extracellular domain, residues 1-596, fused to the constant region of human IgG) (UniProt P12023); assay: pull-down; 100 ng purified APP-Fc on Protein A-agarose beads, incubated with 100 ng purified MBP-LRP4LBD and 0-1000 ng neuronal agrin in PBS with 0.1% BSA, 4 hr, 4°C; immunoblot with anti-MBP, anti-agrin, anti-Fc; both purified
[5] = target: APP-Fc (APP695 extracellular domain, residues 1-596, fused to the constant region of human IgG) (UniProt P12023); assay: pull-down; 100 ng purified APP-Fc on Protein A-agarose beads, incubated with 100 ng purified MBP-LRP4 LBD in PBS with 0.1% BSA, 4 hr, 4°C; Western blot with anti-MBP; both purified
[6] = target: LRP4-Fc (extracellular domain of mouse LRP4, residues 1-1650, fused to the constant region of human IgG) (mouse) (UniProt Q8VI56); assay: pull-down; Fc fusion proteins from 1.5 ml conditioned medium on Protein A-agarose beads, incubated with 1 µg neuronal agrin in DMEM with 0.1% BSA, 4 hr, 4°C; Western blot with anti-agrin; only the binder purified
[7] = target: T1, RAP-Fc (full length RAP fused to the constant region of human IgG) (UniProt P55302); assay: condition: agrin 100 ng/ml; 1 µg in a final volume of 1 ml; pull-down; Fc fusion proteins from 1.5 ml conditioned medium on Protein A-agarose beads, incubated with 1 µg neuronal agrin in DMEM with 0.1% BSA, 4 hr, 4°C; Western blot with anti-agrin; only the binder purified
T1 sequence: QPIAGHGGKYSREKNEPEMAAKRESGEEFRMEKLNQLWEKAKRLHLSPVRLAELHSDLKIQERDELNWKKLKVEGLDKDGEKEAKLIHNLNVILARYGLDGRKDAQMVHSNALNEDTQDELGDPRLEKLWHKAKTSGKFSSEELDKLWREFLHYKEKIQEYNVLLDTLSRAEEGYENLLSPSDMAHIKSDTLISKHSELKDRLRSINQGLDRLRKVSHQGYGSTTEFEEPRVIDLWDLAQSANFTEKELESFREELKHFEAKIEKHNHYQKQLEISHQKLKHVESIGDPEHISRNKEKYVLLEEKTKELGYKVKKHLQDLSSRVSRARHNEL

[8] = target: full length LRP4 expressed on HEK293T cells (UniProt Q8VI56); assay: cell aggregation assay; HEK293T cells expressing APP (green) and LRP4 (red) mixed in suspension in aggregation buffer with CaCl2, 30 min, 37°C; aggregates >3000 µm^2 scored

binding [1]: no binding
binding [2]: no binding
binding [3]: binds
Substance: APP (endogenous, mouse embryonic muscle) (from UniProt P12023 18-770)

binding [5]: binds
Substance: MBP-LRP4LBD (LRP4 ligand binding domain, aa 27-349, fused to maltose-binding protein) (from UniProt Q8VI56 27-349) (domain or fragment)
binding [4]: no binding (condition: with 1000 ng/ml agrin)

binding [6]: binds
binding [7]: no binding
Substance: Recombinant rat agrin C-terminal fragment, Ala1153 Pro1959 (Pro1788-Ser1798del) (from UniProt P25304 1153-1959) (domain or fragment)

binding [8]: binds
Substance: full length APP expressed on HEK293T cells (from UniProt P12023 18-770)
